In the supplement of paper PMC3334620:
Whole data set: some 33,000 sequences, median “E-score (-0.5 to 0.5)” near -0.032, cut for the highest 2% near 0.36. Some of the results follow.

molecular target: T1, Sko1 (UniProt Q02100); test: PBM E-score (8-mer binding enrichment) (E-score (-0.5 to 0.5)); higher = stronger / more preferred TF binding; most listed sequences are background and not binding sites; settings: protein concentration: 200 nM; construct: GST-full length
T1 sequence: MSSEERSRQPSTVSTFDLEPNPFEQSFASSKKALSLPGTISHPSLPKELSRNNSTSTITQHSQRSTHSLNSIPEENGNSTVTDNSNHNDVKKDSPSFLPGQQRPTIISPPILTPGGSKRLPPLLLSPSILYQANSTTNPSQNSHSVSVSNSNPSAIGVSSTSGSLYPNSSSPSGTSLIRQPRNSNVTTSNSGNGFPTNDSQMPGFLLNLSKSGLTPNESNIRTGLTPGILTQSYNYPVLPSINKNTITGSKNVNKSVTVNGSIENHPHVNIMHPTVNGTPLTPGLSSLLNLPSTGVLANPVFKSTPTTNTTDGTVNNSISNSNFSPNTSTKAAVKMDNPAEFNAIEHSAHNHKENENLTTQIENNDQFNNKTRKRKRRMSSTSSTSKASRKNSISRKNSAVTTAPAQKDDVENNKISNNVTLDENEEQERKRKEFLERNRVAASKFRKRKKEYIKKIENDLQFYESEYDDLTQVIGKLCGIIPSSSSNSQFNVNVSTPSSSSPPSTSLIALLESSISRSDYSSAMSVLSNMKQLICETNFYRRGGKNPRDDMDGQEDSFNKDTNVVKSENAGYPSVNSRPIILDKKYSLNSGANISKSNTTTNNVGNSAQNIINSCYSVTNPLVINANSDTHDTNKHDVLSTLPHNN
Outline: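 For each ungapped eight-base word taken together with its reverse complement, the Universal PBM Analysis Suite assigned an E-score. Binding data came from GST-tagged yeast transcription factors, applied at about 100-200 nM, on universal all-10-mer Agilent arrays made double-stranded by primer extension. Fluorescent anti-GST marked bound protein, and scans were normalised with masliner.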

Row | Sequence | PBM E-score
1 | GGCAACTA | -0.153
2 | CACGCGGC | -0.144
3 | CTCTGTTC | -0.183
4 | CTAGAAAA | 0.0764
5 | ATGAGCTC | 0.109
6 | CAATACTC | 0.117
7 | CGATGGGC | -0.195
8 | AAGGACAC | -0.0689
9 | ACTGTCGC | -0.274
10 | GGTAAAAA | 0.0275
11 | GCTAAAGA | 0.099
12 | TATCCAAA | 0.156
13 | TCTGATAA | -0.0319
14 | GTCCTTTA | -0.126
15 | ACCTCGTC | -0.0972
16 | GGCGGGAC | -0.212
17 | CGCGCCAG | -0.0558
18 | GGCTTCGA | -0.109
19 | CACAAAGA | -0.0193
20 | AGGACCAC | -0.2
21 | GATTCCAC | 0.0919
22 | ACGTAGAT | 0.452
23 | GGTGGAAA | -0.203
24 | GTGCCTCA | -0.118

Row | Sequence | PBM E-score
25 | GGATAATA | 0.126
26 | GTCGCAAC | 0.0039
27 | CTAACATA | 0.197
28 | AAAGATTC | 0.0819
29 | AAGGTGAC | 0.0942
30 | GGCACGGA | -0.233
31 | CTCTTGTA | -0.113
32 | CCTCTCTA | -0.354
33 | GGGTACAC | -0.108
34 | AAAACCAC | 0.144
35 | GCGCGTGA | 0.191
36 | GACGCTTA | 0.035
37 | CTCCATAC | 0.0106
38 | ACACTAGG | -0.0781
39 | GAAGCTCC | -0.251
40 | CATACAGC | -0.206
41 | CCCAAGCA | -0.117
42 | GCTCCAGC | -0.2
43 | GGGAGCAA | -0.287
44 | GCCACGGC | -0.175
45 | AGTCGTAA | 0.231
46 | GCCGGAAA | -0.149
47 | CTAAGGAG | -0.236
48 | CCCGTATC | -0.275

Row | Sequence | PBM E-score
49 | TAGTCACA | 0.0679
50 | GGTTGCAC | -0.106
51 | GAGCCTCA | -0.349
52 | GAATCTAA | 0.121
53 | CATCCTAC | -0.0257
54 | AGCCACTG | -0.0844
55 | AAAGGAAT | 0.0299
56 | AGCTGGCC | -0.143
57 | GATAGGGC | -0.334
58 | GCGATTTA | -0.0203
59 | CCCCCGAA | -0.201
60 | CTGGTTGC | 0.0168
61 | CAGTAGAC | 0.139
62 | GAATTAAC | 0.252
63 | GGTGGTTA | -0.0717
64 | AACACAGA | 0.111
65 | CACGGCGC | -0.116
66 | ACGGCTAT | -0.019
67 | AAAATTGG | -0.0542
68 | GGGCTCGA | -0.105
69 | CCGTTGTC | 0.0817
70 | GAGCACGC | 0.1
71 | AAAGTCGA | -0.173
72 | ACCGTCTA | -0.278

Row | Sequence | PBM E-score
73 | AACACGCT | -0.0355
74 | AATCATAC | 0.253
75 | CTGTGTCC | -0.0444
76 | ACTCTAGC | -0.198
77 | CTTTTCTC | -0.011
78 | ACTCGGTA | -0.073
79 | AAGATCAG | -0.146
80 | TAGCCCTA | -0.198
81 | CCTATTCG | -0.222
82 | CGCGCAGC | -0.0457
83 | CTCTGATA | 0.0155
84 | CAAGTCTA | -0.0923
85 | TAGGGCGA | -0.162
86 | TAATGAGA | 0.163
87 | CCTGGTCC | -0.363
88 | CCCTCCGA | -0.216
89 | AATCTGAC | 0.138
90 | AGTGATTA | 0.126
91 | CATACTTA | 0.0874
92 | GGCTCTCA | -0.188
93 | CGACTATC | -0.0391
94 | ATAGAAAT | 0.132
